Assay results: PubChem BioAssay (NCATS)
“And” between values parts separate entries of the source, which are not always exact repeats. Equal values may be shown once. The inconclusive results got no clear call from the source; some entries with a clear call stand among them for comparison. A potency beside an inconclusive call is a rough fit, not a confirmed value. The source made the active and inactive calls. The call rests on the fitted dose curve; in most records, active means well fitted inhibition curve with a large enough effect; inconclusive means small, poorly fitted or top-dose-only effect; inactive means flat fitted curve, though single readings scatter.

Assay: Primary qHTS for inhibitors of nuclear receptor binding SET domain protein 2 (NSD2) in an isogenic RCH-ACV NSD2 p.E1099K mutant (9B) (AID 1645876); further: nearly all actives have a fitted effect of over 70% in size
Conditions: RCH-ACV (leukaemia line) NSD2 E1099K (9B) viability, CellTiter-Glo, 72 h; series mostly up to 44.9 µM; activity change, negative = viability loss: at the top concentration
On the % scale 0 is the no-effect control and ±100 the full control effect; potency means the concentration at half of the fitted maximal effect; tags describe the fitted curve by direction and shape.

| Compound | Potency | outcome | activity change, negative = viability loss |
| --- | --- | --- | --- |
| c1ccc(C2CC2)c(OCC2=NCCN2)c1 | inconclusive: 4.73 µM [inhibitor, partial curve] |  |  |
| C[C@]12CC[C@H](O)CC1=CC[C@@H]1[C@@H]2CC[C@]2(C)C(=O)CC[C@@H]12 | inconclusive: 21.1 µM [inhibitor, single point] and inconclusive: 16.6 µM [inhibitor, partial curve, poor fit] |  |  |
| CC(Cc1ccccc1)NCc1ccccc1Cl (stereo not given) | inconclusive: 29.9 µM [inhibitor, single point] |  |  |
| CN(C)CCc1c[nH]c2cccc(O)c12 | inconclusive: 67.9 µM [inhibitor, single point] |  |  |
| COCC1(CO)C(=O)C2CCN1CC2 (stereo not given) | inconclusive: 26.3 µM [inhibitor, single point] |  |  |
| COP(=S)(OC)Oc1ccc(Sc2ccc(OP(=S)(OC)OC)cc2)cc1 | inconclusive: 18.8 µM [inhibitor, single point] |  |  |
| C[C@]12CC[C@H](OC3OC(CO)C(O)C(O)C3OC3OC(CO)C(O)C(O)C3O)C[C@@H]1CC[C@@H]1C2CC[C@]2(C)[C@@H](C3=CC(=O)OC3)CC[C@]12O (stereo not given in full) | active: 4.3 µM |  |  |
| COP(=O)(OC)C(O)C(Cl)(Cl)Cl (stereo not given) |  | inactive |  |
| CC(C)[C@H]1C(=O)N[C@H](CO)Cc2c[nH]c3cccc(c23)N1C | inconclusive: 0.723 µM [inhibitor, full curve] |  |  |
| CC(=O)OC1CC(O)C(C)(C)C2CC(OC(C)=O)C3(C)C(CCC4(C)C(c5ccoc5)C(=O)C5OC543)C12C (stereo not given) |  |  | inactive: -21.7% [at 17.3 µM] |
